# Results: publication PMC9911399, “Two distinct binding modes provide the RNA-binding protein RbFox with extraordinary sequence specificity”
# Positions count from the first letter of the chain named. Some of the results follow.
# T1: RBFOX1 RRM (Homo sapiens, UniProt Q9NWB1 109-208)
# T1 sequence: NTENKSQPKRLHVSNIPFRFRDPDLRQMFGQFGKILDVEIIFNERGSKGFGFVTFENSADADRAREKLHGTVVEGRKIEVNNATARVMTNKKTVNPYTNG
# B1: UACAGGC (DNA:RNA)
# RNA: GGGAGACCGGAAUUCAGAUUGUCCUACAGGCUUAAAUCCCGUCGUAGCCACCA
# DNA 1: CAATCTGAATTCCGGTCTCCC
# DNA 2: TGGTGGCTACGACGGGATT
# B2: ACGCAUA (DNA:RNA)
# RNA: GGGAGACCGGAAUUCAGAUUGUCCACGCAUAUUAAAUCCCGUCGUAGCCACCA
# DNA 1: CAATCTGAATTCCGGTCTCCC
# DNA 2: TGGTGGCTACGACGGGATT
# B3: UAGGAUG (DNA:RNA)
# RNA: B2 RNA with A25U, C26A, C28G, A31G
# DNA 1: CAATCTGAATTCCGGTCTCCC
# DNA 2: TGGTGGCTACGACGGGATT
# B4: GACCCCG (DNA:RNA)
# RNA: B1 RNA with U25G, A28C, G29C, G30C, C31G
# DNA 1: CAATCTGAATTCCGGTCTCCC
# DNA 2: TGGTGGCTACGACGGGATT
# B5: ACCUCAA (DNA:RNA)
# RNA: B2 RNA with G27C, C28U, A29C, U30A
# DNA 1: CAATCTGAATTCCGGTCTCCC
# DNA 2: TGGTGGCTACGACGGGATT
# B6: CGGACGG (DNA:RNA)
# RNA: B1 RNA with U25C, A26G, C27G, G29C, C31G
# DNA 1: CAATCTGAATTCCGGTCTCCC
# DNA 2: TGGTGGCTACGACGGGATT
# B7: GUAUAAA (DNA:RNA)
# RNA: B2 RNA with A25G, C26U, G27A, C28U, U30A
# DNA 1: CAATCTGAATTCCGGTCTCCC
# DNA 2: TGGTGGCTACGACGGGATT
# B8: ACUUGCC (DNA:RNA)
# RNA: B2 RNA with G27U, C28U, A29G, U30C, A31C
# DNA 1: CAATCTGAATTCCGGTCTCCC
# DNA 2: TGGTGGCTACGACGGGATT
# B9: CUGUUUU (DNA:RNA)
# RNA: B2 RNA with A25C, C26U, C28U, A29U, A31U
# DNA 1: CAATCTGAATTCCGGTCTCCC
# DNA 2: TGGTGGCTACGACGGGATT
# B10: CGUCAUG (DNA:RNA)
# RNA: B2 RNA with A25C, C26G, G27U, A31G
# DNA 1: CAATCTGAATTCCGGTCTCCC
# DNA 2: TGGTGGCTACGACGGGATT
# B11: CAACCCU (DNA:RNA)
# RNA: B2 RNA with A25C, C26A, G27A, A29C, U30C, A31U
# DNA 1: CAATCTGAATTCCGGTCTCCC
# DNA 2: TGGTGGCTACGACGGGATT
# B12: ACCUAGC (DNA:RNA)
# RNA: B2 RNA with G27C, C28U, U30G, A31C
# DNA 1: CAATCTGAATTCCGGTCTCCC
# DNA 2: TGGTGGCTACGACGGGATT
# B13: CUCUACA (DNA:RNA)
# RNA: B2 RNA with A25C, C26U, G27C, C28U, U30C
# DNA 1: CAATCTGAATTCCGGTCTCCC
# DNA 2: TGGTGGCTACGACGGGATT
# B14: GCAAGUG (DNA:RNA)
# RNA: B2 RNA with A25G, G27A, C28A, A29G, A31G
# DNA 1: CAATCTGAATTCCGGTCTCCC
# DNA 2: TGGTGGCTACGACGGGATT
# B15: GUGGUUU (DNA:RNA)
# RNA: B2 RNA with A25G, C26U, C28G, A29U, A31U
# DNA 1: CAATCTGAATTCCGGTCTCCC
# DNA 2: TGGTGGCTACGACGGGATT
# B16: UGCUCAA (DNA:RNA)
# RNA: B1 RNA with A26G, A28U, G29C, G30A, C31A
# DNA 1: CAATCTGAATTCCGGTCTCCC
# DNA 2: TGGTGGCTACGACGGGATT
# B17: UGCCAAG (DNA:RNA)
# RNA: B2 RNA with A25U, C26G, G27C, U30A, A31G
# DNA 1: CAATCTGAATTCCGGTCTCCC
# DNA 2: TGGTGGCTACGACGGGATT
# B18: AUACGCG (DNA:RNA)
# RNA: B2 RNA with C26U, G27A, A29G, U30C, A31G
# DNA 1: CAATCTGAATTCCGGTCTCCC
# DNA 2: TGGTGGCTACGACGGGATT
# B19: AAUUCGC (DNA:RNA)
# RNA: B1 RNA with U25A, C27U, A28U, G29C
# DNA 1: CAATCTGAATTCCGGTCTCCC
# DNA 2: TGGTGGCTACGACGGGATT
# B20: CCAAAGG (DNA:RNA)
# RNA: B2 RNA with A25C, G27A, C28A, U30G, A31G
# DNA 1: CAATCTGAATTCCGGTCTCCC
# DNA 2: TGGTGGCTACGACGGGATT
# B21: AAUUCUA (DNA:RNA)
# RNA: B2 RNA with C26A, G27U, C28U, A29C
# DNA 1: CAATCTGAATTCCGGTCTCCC
# DNA 2: TGGTGGCTACGACGGGATT
# B22: UUUCCUG (DNA:RNA)
# RNA: B2 RNA with A25U, C26U, G27U, A29C, A31G
# DNA 1: CAATCTGAATTCCGGTCTCCC
# DNA 2: TGGTGGCTACGACGGGATT
# B23: GAACCAA (DNA:RNA)
# RNA: B2 RNA with A25G, C26A, G27A, A29C, U30A
# DNA 1: CAATCTGAATTCCGGTCTCCC
# DNA 2: TGGTGGCTACGACGGGATT
# B24: GUCUAUA (DNA:RNA)
# RNA: B2 RNA with A25G, C26U, G27C, C28U
# DNA 1: CAATCTGAATTCCGGTCTCCC
# DNA 2: TGGTGGCTACGACGGGATT
# B25: GAGUAUA (DNA:RNA)
# RNA: B2 RNA with A25G, C26A, C28U
# DNA 1: CAATCTGAATTCCGGTCTCCC
# DNA 2: TGGTGGCTACGACGGGATT
# B26: AUUAGGC (DNA:RNA)
# RNA: B1 RNA with U25A, A26U, C27U
# DNA 1: CAATCTGAATTCCGGTCTCCC
# DNA 2: TGGTGGCTACGACGGGATT
# B27: CCAUUUA (DNA:RNA)
# RNA: B2 RNA with A25C, G27A, C28U, A29U
# DNA 1: CAATCTGAATTCCGGTCTCCC
# DNA 2: TGGTGGCTACGACGGGATT
# B28: CCGAACU (DNA:RNA)
# RNA: B2 RNA with A25C, C28A, U30C, A31U
# DNA 1: CAATCTGAATTCCGGTCTCCC
# DNA 2: TGGTGGCTACGACGGGATT
# B29: GCCCCCU (DNA:RNA)
# RNA: B2 RNA with A25G, G27C, A29C, U30C, A31U
# DNA 1: CAATCTGAATTCCGGTCTCCC
# DNA 2: TGGTGGCTACGACGGGATT
# B30: CAUUUUA (DNA:RNA)
# RNA: B2 RNA with A25C, C26A, G27U, C28U, A29U
# DNA 1: CAATCTGAATTCCGGTCTCCC
# DNA 2: TGGTGGCTACGACGGGATT
# B31: UCCAACG (DNA:RNA)
# RNA: B1 RNA with A26C, G29A, G30C, C31G
# DNA 1: CAATCTGAATTCCGGTCTCCC
# DNA 2: TGGTGGCTACGACGGGATT
# Target: T1, RBFOX1 RRM
# Experiment: EMSA; HiTS-Eq, 1 nM pool, 10 min; buffer printed only for the single-RNA assays: 10 mM Tris pH 7.5, 150 mM NaCl, 3.4 mM EDTA, 0.001% NP-40, 30 C
# Settings: tags: His6 N-terminal (pET28a); label: 5' 32P
# In short: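 Relative association constants, normalised to the cognate motif, were derived by comparing read counts of each RNA species with those of the control reaction. The RNA sequenced was the free fraction, separated by 8% native PAGE after a 10 min equilibration in 50 µL of 1 nM 5′-radiolabelled RNA (7 randomized nucleotides) with increasing concentrations of purified wild-type or mutant RbFox RRM.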
row,Binder,binding signal
1,B1,0.00911 KA relative to UGCAUGU
2,B2,0.00394 KA relative to UGCAUGU
3,B3,0.0113 KA relative to UGCAUGU
4,B4,0.0083 KA relative to UGCAUGU
5,B5,0.00184 KA relative to UGCAUGU
6,B6,0.0177 KA relative to UGCAUGU
7,B7,0.00317 KA relative to UGCAUGU
8,B8,0.0101 KA relative to UGCAUGU
9,B9,0.017 KA relative to UGCAUGU
10,B10,0.0131 KA relative to UGCAUGU
11,B11,0.00171 KA relative to UGCAUGU
12,B12,0.00366 KA relative to UGCAUGU
13,B13,0.00251 KA relative to UGCAUGU
14,B14,0.0188 KA relative to UGCAUGU
15,B15,0.019 KA relative to UGCAUGU
16,B16,0.0119 KA relative to UGCAUGU

row,Binder,binding signal
1,B17,0.0154 KA relative to UGCAUGU
2,B18,0.00538 KA relative to UGCAUGU
3,B19,0.00863 KA relative to UGCAUGU
4,B20,0.004 KA relative to UGCAUGU
5,B21,0.00109 KA relative to UGCAUGU
6,B22,0.0199 KA relative to UGCAUGU
7,B23,0.000733 KA relative to UGCAUGU
8,B24,0.00523 KA relative to UGCAUGU
9,B25,0.00438 KA relative to UGCAUGU
10,B26,0.00812 KA relative to UGCAUGU
11,B27,0.00484 KA relative to UGCAUGU
12,B28,0.00564 KA relative to UGCAUGU
13,B29,0.00688 KA relative to UGCAUGU
14,B30,0.00214 KA relative to UGCAUGU
15,B31,0.00691 KA relative to UGCAUGU
